Hit rate of the full screen: of about 150,000 compounds, about 540 (0.36%) showed an effect of 50% or more. The list shows a part of the results.

The assay concerns Plasmodium falciparum. In words: Primary screen in NF54 nanoGlo assay, in single point, at 2uM, 72h; a lower Z score goes with more inhibition. It is filed as functional, Erythrocyte. To be noted: timepoint 72 hour.
Take `CCOc1ccc(C(=O)N2CCN=C2N2CCC(C)CC2)cc1`: the % Inhibition (commonly the drop in the measured response relative to a control, in per cent) is reported as -11% and the Z score is listed as 1.03.
For `CC(C)(C)OC(=O)NOC(C)(C)COC(=O)C[C@@H]1COC(=O)C1` the same measures were 1% and -0.11.
As to `Cc1ccc(CN(C(=O)c2oc3cc(C)c(C)cc3c2C)c2ccccn2)o1`, the “% Inhibition” value is reported as 15% and the Z score is given as -1.72.
For `O=C(NCc1ccncc1)c1nnn2c1c(=O)[nH]c1ccccc12`, the “% Inhibition” value is reported as -3% and the Z score is on record as 0.66.
As to `FC(F)c1nnc2ccc(N3CCCN(c4ccncc4)CC3)nn12`, the “% Inhibition” value is on record as -4% and the Z score came out at 0.49.
Take `Cc1nc2ccccn2c1CNC(=O)[C@@H]1CCCn2nccc21`: the “% Inhibition” value is reported as -14% and the Z score is 2.4.
`CC1CN(C(=O)CN2CCNCC2=O)CC(c2ccc(F)cc2)O1` (centres undefined): the “% Inhibition” value is reported as 5% and the Z score is recorded as -0.78.
For `Cc1cccnc1CN1C[C@@H](F)[C@@H](OCc2nc3ncccc3[nH]2)C1` the same measures were -5% and 0.82.
As to `CC1=C(C)CN(S(=O)(=O)CC2C[C@@H]3COC[C@@H]3O2)CC1` (some centres undefined), the “% Inhibition” value stood at 6% and the Z score is recorded as -0.7.
For `Cn1ccnc1[C@@H]1CCCN1Cc1nccn1Cc1ccccc1`, the “% Inhibition” value was determined as 50% and the Z score is recorded as -4.75.
Take `O=C(CCCCN1C(=O)c2ccccc2C1=O)Nc1nc(-c2ccccc2)cs1`: the “% Inhibition” value is -19% and the Z score was found to be 2.03.
As to `C[C@H](NC(=O)CN1CCc2nn[nH]c2C1)c1cccs1`, the “% Inhibition” value is -7% and the Z score was determined as 0.71.
Consider `O=C(O)[C@H](Cc1ccc(O)cc1)NC1CCN(c2ccc(F)c(F)c2)CC1`, for which the “% Inhibition” value is on record as -3% and the Z score is on record as 0.58.
Consider `Cc1nc(C#N)c(NC[C@@H](c2cccs2)N(C)C)o1`, for which the “% Inhibition” value was -7% and the Z score came out at 0.99.
For `COc1ccc2c(c1F)CC[C@@H]2NCc1cnc(C)cc1C` the same measures were -11% and 1.5.
On to `CN(C(=O)CCc1cn2ccccc2n1)[C@H]1CCN(Cc2ccccc2)C1`, for which the “% Inhibition” value is 0% and the Z score amounted to 0.02.
In the case of `O=C(CCc1cn[nH]c1)N[C@H]1COCC[C@@H]1O`, the “% Inhibition” value is -18% and the Z score worked out at 1.93.
Consider `COC(=O)C1CC(Oc2ccccc2F)CN1S(=O)(=O)c1cccnc1` (centres undefined), for which the “% Inhibition” value is -13% and the Z score worked out at 2.45.
Consider `C[C@H]1CCc2ccccc2N1Cc1nc(-c2ccsc2)no1`, for which the “% Inhibition” value was 1% and the Z score is -0.07.
As for `CC(C)C1=NN([C@H]2CCCC[C@@H]2O)C(=O)C1`, the “% Inhibition” value is -5% and the Z score came out at 1.04.
For `CC(C)c1nccc(C(=O)N(C)C[C@H](C)CN2CCCC2)n1` the same measures were 2% and -0.34.
For the compound `CN1C(=O)[C@@H]2CC[C@H]1CN(C(=O)Cn1c(C3CC3)nc3ccccc31)C2`, the “% Inhibition” value worked out at 1% and the Z score was -0.2.
For the compound `Cc1cc(C(=O)N2CC[C@@]3(CCCN(Cc4ccccc4F)C3=O)C2)n[nH]1`, the “% Inhibition” value is -17% and the Z score was 1.52.
Regarding `COc1ccc(Cl)cc1-c1nc([C@H]2CC(=O)N(c3ccc(F)cc3)C2)no1`, the “% Inhibition” value is recorded as -10% and the Z score is recorded as 0.89.
As for `COc1ccccc1NC(=O)c1cc(C)n2nccc2n1`, the “% Inhibition” value stood at 1% and the Z score is on record as -0.17.
For `CC1CC(NCCc2ccccc2F)CN1Cc1ccccc1` (centres undefined) the same measures were -14% and 1.2.
Turning to `CCc1cnc(N2CC[C@@H]3OCc4cccc(c4)Oc4cc(ccc4OC)C(=O)N(CCCO)CC(=O)N[C@H]3C2)nc1`, the “% Inhibition” value was -19% and the Z score amounted to 3.53.
With `O=C(CN1C(=O)COc2ccc(Cl)cc21)NCCn1ccnc1`, the “% Inhibition” value is -1% and the Z score is 0.21.
In the case of `CN(C)C(=O)C1C[C@@H]2OCC[C@@H]2N1C(=O)CCc1ccccc1O` (some centres undefined), the “% Inhibition” value stood at 10% and the Z score is recorded as -1.64.
With `COc1cc(F)c([C@H](C)NCc2ocnc2C)cc1OC`, the “% Inhibition” value is reported as 16% and the Z score was -2.
Take `Cc1ccnc(N2CCC[C@H]2C(C)(C)O)n1`: the “% Inhibition” value was -8% and the Z score stood at 1.17.
As to `O=C(CCC1(Cc2ccccc2)CCC(=O)N1)N[C@H]1CCCCNC1=O` (some centres undefined), the “% Inhibition” value was 2% and the Z score is -0.23.
Turning to `Cc1ccc(OCCN2CCN(CC(=O)N3CCCc4ccccc43)CC2)cc1`, the “% Inhibition” value is given as -10% and the Z score is on record as 1.34.
As to `c1nc(CN2CCC(=C3CC3)CC2)no1`, the “% Inhibition” value is reported as -9% and the Z score stood at 1.5.
With `Cc1nc(NCCN2CCCC[C@@H]2CO)c2ccsc2n1`, the “% Inhibition” value is -13% and the Z score was found to be 2.05.
In the case of `CCCOCC(=O)NC[C@H](Cc1ccc(C)cc1)C(=O)O`, the “% Inhibition” value is listed as 22% and the Z score is on record as -2.6.
For the compound `Fc1ccc(CNC[C@H]2Cn3ccnc3CO2)cc1F`, the “% Inhibition” value is 26% and the Z score is recorded as -2.89.
For `Cc1ccc(-n2cc(C3CCN(C(=O)OC(C)(C)C)CC3)c(C(=O)Nc3ccc(F)cc3)n2)c(C)c1` the same measures were 12% and -1.39.
For `COc1ccc(S(=O)(=O)N2CC(=O)N(C3CCCC3)C3(CCCCC3)C2)cc1OC`, in that order: -10% and 1.54.
On to `Cc1cc(C)n(CC(=O)N(CCS(C)(=O)=O)C(C)(C)C)n1`, for which the “% Inhibition” value is -8% and the Z score turned out to be 0.93.
Take `C[C@@H](CN1CCN(c2ccccc2)CC1)NC(=O)c1ccc[nH]1`: the “% Inhibition” value is -6% and the Z score amounted to 1.1.
With `COc1ccc(OC2CCN(C(C)=O)CC2)c(C(=O)N(C)CCc2ncon2)c1`, the “% Inhibition” value is recorded as -3% and the Z score came to 0.71.
Take `CS(=O)(=O)c1ccc(C(F)(F)F)cc1N`: the “% Inhibition” value is listed as 5% and the Z score is recorded as -0.68.
As for `C[C@@]1(C(=O)N2CCN(c3ccccc3F)CC2)Oc2cccnc2NC1=O`, the “% Inhibition” value is reported as -6% and the Z score amounted to 1.07.
As for `CC1=C[C@@H](CNCc2cccnc2)[C@H](C(C)C)C[C@H]1Cc1nnc(COc2ccc(F)cc2)o1`, the “% Inhibition” value amounted to 22% and the Z score is given as -2.52.
For `Cc1nn(-c2ncccn2)c2c1[C@@H](c1ccc(F)cc1Cl)CC(=O)N2` the same measures were 34% and -3.8.
In the case of `CC(C)[C@]1(C)NC(=O)N(Cc2cccc3cccnc23)C1=O`, the “% Inhibition” value turned out to be 5% and the Z score is given as -0.48.
For `Cc1cc([C@H](C)Nc2cnn(CC(C)C)c2)no1` the same measures were -8% and 0.96.
For `Nc1c2c(-c3cccc(F)c3)nc(NCCc3ccccc3)nc2nn1-c1cccc(F)c1`, in that order: -5% and 0.65.
As for `CC1(C)CN(C(=O)Nc2ccccc2N2CCCC2)CCCO1`, the “% Inhibition” value worked out at 2% and the Z score is -0.49.
For `CC(=O)Nc1ccc(S(=O)(=O)N2CC[C@H](Oc3cnc4ccccc4n3)C2)c(C)c1`, in that order: 4% and -0.82.
For the compound `COC(=O)[C@@H](NC(=O)N1CCN(C(=O)N[C@H](C(=O)OC)C(C)C)CC1)C(C)C`, the “% Inhibition” value is recorded as -14% and the Z score stood at 1.71.
On to `CC1CCCC(C(C)NC(=O)CCOC2CCOCC2)C1` (centres undefined), for which the “% Inhibition” value was -2% and the Z score is reported as 0.28.
For the compound `Cc1ncc(C(C)C)c(NCc2n[nH]c(=O)[nH]2)n1`, the “% Inhibition” value is listed as -1% and the Z score worked out at 0.11.
Consider `CCC1Oc2cc(C(C)Nc3nccc(OC)n3)ccc2NC1=O` (centres undefined), for which the “% Inhibition” value was -12% and the Z score turned out to be 1.65.
For `Cc1cc2occ(CC(=O)N[C@@H](Cc3c[nH]c4cc(F)ccc34)C(=O)O)c2cc1C`, the “% Inhibition” value came to 39% and the Z score is -5.06.
As to `Nc1c2c(-c3ccc(F)c(Cl)c3)nc(N3CCCCC3)nc2nn1-c1ccccc1`, the “% Inhibition” value is given as -18% and the Z score is 1.76.
With `CC(=O)c1ccc(NC(=O)c2cccc(-c3noc(C4CCC4)n3)c2)cc1`, the “% Inhibition” value was 3% and the Z score is -0.45.
As for `CCN1CCN(c2nccc(C3CCCC3)n2)[C@@H](C)C1=O`, the “% Inhibition” value is given as -10% and the Z score stood at 1.68.
`CCC(CC)c1n[nH]c2c1CN(Cc1nc(C)c(C)nc1C)CC2`: the “% Inhibition” value was -6% and the Z score is 0.85.
For `Cc1ccc(CNC(=O)c2oc3ccc4c(c3c2C)[C@@H](O)CC(C)(C)O4)cc1` the same measures were 5% and -0.92.
Regarding `O=C(O)[C@H]1CCCN(C(=O)C2CC2c2ccc3ccccc3c2)C1` (some centres undefined), the “% Inhibition” value is -1% and the Z score came to 0.14.
For the compound `NC(=O)c1cncc(Oc2ccc(C(F)(F)F)nn2)c1`, the “% Inhibition” value is -21% and the Z score is 3.35.
Consider `O=C(NCC1CCN(c2cc(-c3ccccc3)n[nH]2)CC1)c1n[nH]c2c1CCCC2`, for which the “% Inhibition” value was -23% and the Z score is on record as 2.34.
`Cc1cc2nc(Cc3ccc(F)cc3)n([C@@H](C)C(=O)NCCc3ccccn3)c2cc1C`: the “% Inhibition” value is reported as -15% and the Z score came out at 1.75.
`CC1CCN(CC(=O)N2CCCCCC2)CC1`: the “% Inhibition” value is -1% and the Z score is listed as 0.08.
For `COc1ccc(NC(=O)c2ccc(OCC3CCOCC3)nc2)cc1Cl`, the “% Inhibition” value is -9% and the Z score is 1.76.
For `CCN1CCN(C(=O)[C@H](C)N(c2ccc(OC)cc2)c2nc(-c3ccc(OC)cc3)cs2)CC1`, the “% Inhibition” value is listed as 0% and the Z score is reported as 0.07.
As to `O=S(=O)(Nc1ccn2nccc2c1)c1ccc(F)c(Cl)c1`, the “% Inhibition” value was 0% and the Z score is on record as -0.06.
`CN(CCc1ccccn1)C(=O)c1ccc2sc(N)nc2c1`: the “% Inhibition” value is recorded as -9% and the Z score is listed as 1.36.
Take `CC(C)N1CCC(N2C(=O)O[C@H]3CN(Cc4ccc(F)c(F)c4)C[C@H]32)CC1`: the “% Inhibition” value was -5% and the Z score is on record as 0.7.
`Cc1cccc(CS(=O)(=O)N2CC(=O)Nc3ccccc32)c1`: the “% Inhibition” value is on record as -10% and the Z score stood at 1.87.
For the compound `CC1CCC2C(CCCN2C(=O)COCC2CCCO2)C1` (centres undefined), the “% Inhibition” value was -6% and the Z score is 0.9.
As to `COc1ccc(CNC(=O)c2cc(-c3sc(-c4ccc(C)cc4)nc3C)n[nH]2)cc1`, the “% Inhibition” value is recorded as -6% and the Z score was 0.86.
For the compound `O=C(N[C@@H]1CCCC[C@H]1NC(=O)C1CCN(C(=O)c2cccc(F)c2)CC1)c1ccc(F)cc1`, the “% Inhibition” value is 29% and the Z score is reported as -3.3.
For `Cn1cccc1CN1CC(Cc2nc(-c3cccnc3)no2)C1`, the “% Inhibition” value is given as -13% and the Z score amounted to 1.82.
For `CCOC(=O)[C@H]1CCCN(C(=O)CN2C(=O)COc3ccc(S(=O)(=O)N4CCOCC4)cc32)C1`, in that order: -14% and 1.83.
As to `CCc1c(C)sc2c1CCN(C(=O)Nc1cccc(C)c1C)[C@@H]2c1ccccc1`, the “% Inhibition” value is recorded as 7% and the Z score was -0.66.
Regarding `Cc1coc2ccc(NC(=O)NCCN3C(=O)CNC3=O)cc12`, the “% Inhibition” value is recorded as -7% and the Z score was 1.03.
As to `O=c1c2ccccc2cnn1CN1CCC2(CCCCC2)CC1`, the “% Inhibition” value is -7% and the Z score came to 0.98.
On to `COc1ccc(CCNC(=O)CCS(=O)(=O)Cc2ccc(Cl)cc2)cc1OC`, for which the “% Inhibition” value is -6% and the Z score is 1.02.
As to `COCC(=O)NC1CN(C(=O)c2cccc(Cl)c2C)C1`, the “% Inhibition” value is -4% and the Z score was 0.61.

The record behind these values is ChEMBL document CHEMBL4888484, “Replenishing the malaria drug discovery pipeline: Screening and hit evaluation of the MMV Hit Generation Library 1 (HGL1) against asexual blood stage Plasmodium falciparum ,using a nano luciferase reporter read-out” (2022).
